Measured values reported in PMC2064240 (The Journal of Cell Biology, 2006).

Molecular target: T1, GST-SV343-571 (bovine, UniProt O46385-2 343-571)
T1 sequence (looked up): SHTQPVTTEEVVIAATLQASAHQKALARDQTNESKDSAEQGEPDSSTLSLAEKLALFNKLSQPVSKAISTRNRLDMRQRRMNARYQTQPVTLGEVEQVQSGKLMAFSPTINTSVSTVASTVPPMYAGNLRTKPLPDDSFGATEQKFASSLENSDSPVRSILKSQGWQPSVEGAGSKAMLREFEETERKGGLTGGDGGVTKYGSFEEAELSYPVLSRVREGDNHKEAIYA
Test: pull-down

B1: 6×His-tagged, full-length Tctex-1 (natural protein)
chain: not shown
B1: binds.
